In US11178870B2 (priority 2017, dated 2021):

Tests used:
Phytophthora infestans = assay type: in vivo; details: class of control value, Table 7
[1] = tested on: Colletotrichum orbiculare; details: 250 ppm spray, 2.5 ml/pot; investigated 6 to 10 days after inoculation
Magnaporthe grisea = assay type: in vivo; details: class of control value, Table 7

Structure (SMILES)	Test F control value (late blight on tomato) (Phytophthora infestans)	Test H control value (anthracnose on cucumber) [1]	Test A control value (blast on rice) (Magnaporthe grisea)
CCn1c(-c2ccccc2F)c(-n2cc(F)cn2)cc(Cl)c1=O [Compound 383]	L (L shows the control value of 50% or less)	H (H shows the control value more than 50%)	–
O=c1c(Br)cc(-c2cc(Br)sc2Cl)c(-c2c(F)cccc2F)n1CC(F)F [Compound 400]	L (L shows the control value of 50% or less)	L (L shows the control value of 50% or less)	H (H shows the control value more than 50%)
Cc1cnn(-c2cc(Cl)c(=O)n(C)c2-c2ccc(F)cc2F)c1Cl [Compound 410]	L (L shows the control value of 50% or less)	H (H shows the control value more than 50%)	H (H shows the control value more than 50%)
